Reference: the supplement of paper PMC10338343
± gives the standard deviation. Only a part is listed here, and it is no random draw.

System: MIWI (PIWIL1) piRISC loaded with L1MC piRNA (30 nt)
Experiment: pre-steady-state target cleavage rate (min^-1); MIWI and MILI are mouse PIWI proteins and EfPiwi is from a freshwater sponge; tags in brackets are library labels; higher = faster piRNA-guided slicing of the target
Settings: guide: L1MC piRNA 5'p-UAACUAAAUACUAUGCAAGCUGUAGGUCCU; auxiliary factor: 500 nM mouse GTSF1
Outline: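 Cleave-'n-Seq reactions paired 0.1 nM transcribed, DNA-blocked target RNA library with 1 nM active affinity-purified piRISC holding one synthetic guide, plus or minus 500 nM GTSF1 partner protein, in HEPES–potassium acetate buffer at 33 °C for 0–8 or 0–960 min. After sequencing of uncleaved targets and normalisation to depth and weakly complementary targets, the pre-steady-state cleavage rate was taken from a burst-and-steady-state fit. Three trials were pooled, and k3 was capped at 0.0001 min^-1.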

Row | Sequence | pre-steady-state target cleavage rate
1 | UCCUGGAACAGCUUGCUUAGUAUUUUCAAA | 0.108 ± 0.022
2 | UCCACCUACAGCUUCGAUAGUAUUUACAAA | 0.0216 ± 0.0089
3 | UCCUGGUACACGAUGCAUAGUAUUUAGUUA | 0.164 ± 0.037
4 | UCCUGGUACAGCUUGCAAAGUAUUUUCAAA | 0.117 ± 0.03
5 | UCGACCUACAGGAUGCAUAGUAUUUUCAAA | 0.244 ± 0.033
6 | UCCUGGAUGAGCAUCCAUAGUAUUUAGUUA | 0.0384 ± 0.013
7 | UCGACCUACAGCUAGCAUAGUAUUUUCAAA | 0.41 ± 0.051
8 | UCCUGGAACAGCUUGCAUAGUAUAAACAAA | 0.18 ± 0.043
9 | UCCUGCUACAGCUUGCAUAGUAUUUUGAAA | 0.26 ± 0.041
10 | UCGACCUACAGCUUCGUUAGUAUUUAGUUA | 0.0763 ± 0.01
11 | UCCUGGAACUCCUUGCAUAGUAUUUUCAAA | 0.0385 ± 0.0072
12 | UCCUGCUACACGAUGCAUAGUAUUUUCAAA | 0.107 ± 0.026
13 | UCCUGGAUCACCUUGCAUAGUAUUUAGAAA | 0.152 ± 0.043
14 | UGGACCUACAGCUUGCAUAUGUAUUUAGUUA | 0.00421 ± 0.0041
15 | UCCUGGAUGUCGAACGUAAGUUUUUUGUUA | < 0.0001
16 | UCGACCUACAGCUUGCAUAGAUAUUAGUUA | 0.144 ± 0.046
17 | AGGACCUACAGCUACCAUAGUAUUUAGAAA | 0.146 ± 0.034
18 | UCCUCCUACAGCUUGCAAUGUAUUUUCAAA | 0.0383 ± 0.01
19 | UCCUGCUUCAGCUUCCAUAGUAUUUAGUUA | 0.0509 ± 0.014

Row | Sequence | pre-steady-state target cleavage rate
20 | UCGACCUACAGCAUGCAUAGUAUUUUCAAA | 0.415 ± 0.059
21 | UCCUGCUACAGCUUGCAUAGUUAAUAGUAA | 0.0512 ± 0.018
22 | AGGACCUACAGCUUGCAUAGUAAAUUCAAA | 0.338 ± 0.08
23 | UCCACCUACAGCAAGCAUAGUAUUUAGUAA | 0.507 ± 0.042
24 | UCCUGGAUGUCGAACCAUUGUAUUUACUUA | < 0.0001
25 | UCCUCCUACAGCUUGCAUUGUAUUUACAAA | 0.132 ± 0.026
26 | UCCUGCUACACGUUGCAUAGUAUUUACAAA | 0.142 ± 0.024
27 | UCCUGGAUGAGGAUGCAUAGUAUUUAGUUA | 0.0231 ± 0.006
28 | UCCUGGAACAGCUUGCAUACAAUUUAGUAA | 0.0102 ± 0.0056
29 | AGGACCUACAGCUUGCAUUGUAUUUUCAAA | 0.186 ± 0.042
30 | UCCUCCUACAGCUUCCAAAGUAUUUAGUUA | 0.42 ± 0.035
31 | UCCUCCUACAGCUUCGAUAGUAUUUAGUUA | 0.656 ± 0.052
32 | UCCUGGAACAGCUUGGAUAGUAUUUACAAA | 0.0181 ± 0.0059
33 | UCCUGGAACAGGUUGCAUAGUAUUUUCAAA | 0.123 ± 0.019
34 | UCCACCUACAGCUUGCAUAGUAAAUAGAAA | 0.167 ± 0.035
35 | UCCUGCUACAGCUACCAUAGUAUUUAGAAA | 0.0944 ± 0.03
36 | UCCUGGAUGUCGAACGUAUCUAUAAAGUUA | < 0.0001
37 | UCCUGCUACAGCAAGCAUAGUAUUUACAAA | 0.231 ± 0.057
38 | UGGACCUACAGCUUGCUAUGUAUUUAGAAA | 0.0086 ± 0.0042
